In publication PMC4336329 (PLoS ONE, 2015):
Hit rate of the full screen: of about 310,000 compounds, about 14,000 (4.5%) showed an effect of 50% or more. The effect is printed as a negative number. The list shows a part of the results.

What follows are compounds tested against human ether-à-go-go-related gene (hERG) potassium channel (human, UniProt Q12809) (assay: primary screen, population patch clamp on CHO cells stably expressing hERG).
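Note: peak tail current of the secondary pulse compared with the same well before compound.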

Chain of human ether-à-go-go-related gene (hERG) potassium channel (Q12809 whole entry, looked up): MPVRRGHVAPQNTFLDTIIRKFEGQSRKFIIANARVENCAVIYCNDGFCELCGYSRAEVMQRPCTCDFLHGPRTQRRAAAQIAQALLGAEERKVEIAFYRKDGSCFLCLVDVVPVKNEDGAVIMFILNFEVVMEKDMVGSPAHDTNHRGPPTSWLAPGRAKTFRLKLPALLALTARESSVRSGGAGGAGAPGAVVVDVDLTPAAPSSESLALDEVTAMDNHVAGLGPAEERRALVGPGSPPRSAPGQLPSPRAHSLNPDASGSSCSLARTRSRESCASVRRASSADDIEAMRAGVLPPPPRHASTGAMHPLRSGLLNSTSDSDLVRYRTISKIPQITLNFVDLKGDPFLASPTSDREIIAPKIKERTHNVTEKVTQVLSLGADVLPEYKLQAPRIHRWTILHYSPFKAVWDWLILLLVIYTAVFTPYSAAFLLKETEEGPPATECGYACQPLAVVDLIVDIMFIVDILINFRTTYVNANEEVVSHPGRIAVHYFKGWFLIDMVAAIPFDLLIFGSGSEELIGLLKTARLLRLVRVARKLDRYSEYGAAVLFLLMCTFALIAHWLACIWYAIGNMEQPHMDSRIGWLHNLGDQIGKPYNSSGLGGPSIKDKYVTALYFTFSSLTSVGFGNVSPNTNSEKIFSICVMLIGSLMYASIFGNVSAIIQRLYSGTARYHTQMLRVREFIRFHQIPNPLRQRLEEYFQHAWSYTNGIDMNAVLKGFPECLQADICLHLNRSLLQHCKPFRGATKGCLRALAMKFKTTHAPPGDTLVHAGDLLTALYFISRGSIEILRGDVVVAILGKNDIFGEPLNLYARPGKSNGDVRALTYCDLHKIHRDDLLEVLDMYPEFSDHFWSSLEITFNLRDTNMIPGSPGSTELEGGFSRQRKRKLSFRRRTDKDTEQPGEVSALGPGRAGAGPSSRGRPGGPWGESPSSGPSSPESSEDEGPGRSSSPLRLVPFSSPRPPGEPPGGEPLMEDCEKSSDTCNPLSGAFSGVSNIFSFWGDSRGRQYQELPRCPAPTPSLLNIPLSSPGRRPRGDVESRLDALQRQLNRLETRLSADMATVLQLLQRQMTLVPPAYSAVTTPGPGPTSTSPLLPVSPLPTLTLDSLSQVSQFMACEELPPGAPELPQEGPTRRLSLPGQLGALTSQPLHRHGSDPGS

Compound | hERG current change (%, negative = inhibition) at 10uM
COc1ccc(NS(=O)(=O)c2cccc(C(=O)N/N=C/c3cn(-c4ccccc4)nc3-c3ccccc3)c2)cc1 | 10.2%
Cc1cccc(C)c1NC(=O)CNC(=O)CNC(=O)Cc1cccc2ccccc12 | 4.51%
COc1cc(-c2onc3ccc(Br)cc23)cc(OC)c1OC | 0.245%
COc1nc(Nc2ccc([N+](=O)[O-])cc2)nc(NC(C)C)n1 | -2.54%
CS(=O)(=O)N(C(=O)NC(=O)NC12CC3CC(CC(C3)C1)C2)C1CCCCC1 | 13.5%
Cc1ccnc(NS(=O)(=O)c2ccc(NC(=O)C3CC3)cc2)n1 | 18.5%
CCN(CCNC(=O)C1CCCN(S(=O)(=O)c2cnc[nH]2)C1)c1ccccc1 (stereo not drawn) | 4.35%
O=C(NCCCNC(=O)c1ccccn1)c1cccc(F)c1 | -0.38%
COc1ccc(NC(=O)CSc2nc3ccc(Nc4nc(N5CCOCC5)nc(N5CCOCC5)n4)cc3s2)cc1 | 0.736%
COc1ccc(CC(=O)OCC(=O)NCC2CCCO2)cc1OC (stereo not drawn) | 9.33%
COc1ccc(S(=O)(=O)Nc2ccccc2)cc1 | -5.64%
Cc1cccc(N2CCN(C(=O)C3CCN(c4nnc(-n5cccc5)s4)CC3)CC2C)c1 (stereo not drawn) | -55.8%
Cc1ccc(C(=O)N/C(=C\c2ccco2)C(=O)NCCCN2CCOCC2)cc1C | -12.7%
CCOC(=O)N1CCC(N(CCOC)C(=O)Nc2ccc(CC)cc2)CC1 | -35.8%
O=C(CNS(=O)(=O)c1ccc(F)cc1)N1CCN(c2ccc(F)cc2)CC1 | -51.7%
COC(=O)c1ccc(NC(=O)CNS(=O)(=O)c2cccs2)cc1 | -1.02%
CCN=C1SC(CC(=O)Nc2ccc(C)cc2)C(=O)N1CC (stereo not drawn) | 9.15%
COc1ccc(N(CC(=O)NC2CCCCC2C)S(=O)(=O)c2c(C)nn(C)c2C)cc1 (stereo not drawn) | -15.5%
Cc1cc2oc(C(=O)Nc3cccnc3)c(C)c2cc1C | -8.46%
CCCCNC(=S)N(C)/N=C/c1sc(N2CCCCC2)nc1-c1cccs1 | 14.4%
Cc1csc(SC(C)C(=O)Nc2ccccc2C)n1 (stereo not drawn) | -11.3%
CC(=O)Nc1ccc(S(=O)(=O)N2CCC(NC(=O)c3ccccc3)CC2)cc1 | 22.2%

Compound | hERG current change (%, negative = inhibition) at 10uM
Cn1c(SCC(=O)Nc2ccc3cn[nH]c3c2)nnc1-c1cccs1 | -24.9%
O=C(Cn1nc(-c2cccs2)ccc1=O)Nc1ccc(Br)cc1 | -28.5%
CCOc1ccc(-c2nc(C#N)c(NC3CC3)o2)cc1 | -2.09%
CCOC(=O)C1CCN(C(=O)c2ccc3c(c2)NC(=O)/C(=C/c2ccccc2)S3)CC1 | -8.86%
Cc1ccc(CN(C(=O)c2ccccc2C)C2CCS(=O)(=O)C2)o1 (stereo not drawn) | -0.796%
CCOc1ccc(NC(=O)CN2C(=O)C(C)SC(C)C2=O)cc1 (stereo not drawn) | -9.77%
COc1ccc2c(c1O)-c1c(OC)c(OC)cc3c1[C@H](C2)N(C)CC3 | -36.5%
CC(=O)Nc1ccc(NS(=O)(=O)c2cn(C)c(=O)n(C)c2=O)cc1 | -0.872%
CC1=CC(c2ccccc2)n2nc(NS(=O)(=O)c3ccc(C)cc3)nc2N1 (stereo not drawn) | -12.1%
CCOc1ccc(-c2nnc(-c3cccnc3)o2)cc1OCC | -42.9%
O=C(OCc1nnc(-c2ccc(Cl)cc2)o1)c1ccc(=O)n(Cc2ccccc2)n1 | -7.02%
O=C(O)c1cc(N/N=C/c2ccc(N3CCOCC3)cc2)ccc1Cl | -0.775%
O=C1Nc2ccc(F)cc2C12OCCO2 | 15.5%
Cc1cc(-c2ccccc2)c2ccc(NC(=O)C(C)(C)C)nc2n1 | 6.6%
COCCN1CC(C(=O)N2CCC(Oc3ccccc3OC)CC2)CCC1=O (stereo not drawn) | -2.66%
O=C(/C=C/c1cccc([N+](=O)[O-])c1)NCCSCc1cccc(Cl)c1 | -18.9%
COc1ccc(CC(=O)OCC(=O)Nc2ccc3c(c2)OCO3)cc1OC | 6.13%
C=C(C)CN1CCN(c2c(CCC#N)c(C)c(C#N)c3nc4ccccc4n23)CC1 | -25.8%
S=C(Nc1cccc2ccccc12)N1CCN(c2ncccn2)CC1 | 9.94%
C=C(C)Cn1c(=S)[nH]c2ccccc2c1=O | 5.47%
CCOC(=O)c1c(C=O)c(C)n(Cc2ccccc2Cl)c1C | -2.09%
CC(C)c1nnc(SCC(=O)NC2CCCC2)n1C | 31.9%

Compound | hERG current change (%, negative = inhibition) at 10uM
CC(C)c1[nH]c(=O)c(C#N)c2c1COC(C)(C)C2 | -26.1%
O=C1NC(=O)N(c2ccccc2)C(=O)/C1=C/c1ccc2c(c1)Cc1ccccc1-2 | 11.5%
CN(C)C=Nc1c(Br)cc(Br)c2nonc12 | -29.9%
CC(C)Oc1ccc(C2c3c(oc4ccccc4c3=O)C(=O)N2CCCN2CCOCC2)cc1 (stereo not drawn) | -39.7%
COc1ccc(S(=O)(=O)NCC(=O)N(CC(=O)NCc2ccco2)Cc2ccc(F)cc2)cc1 | 1.94%
O=C(Nc1cc(S(=O)(=O)N2CCOCC2)ccc1N1CCCC1)c1ccc(F)cc1 | -82.3%
CCOC(=O)c1c(C)n(-c2ccc(C)cc2)c2c(CC(C)=O)c(Br)c(OC)c(O)c12 | 23.2%
Cc1ccc(NC(=O)/C(C#N)=C/c2ccsc2)c(C)c1 | 12.7%
CN(Cc1nc(-c2cccnc2)no1)S(=O)(=O)c1ccccc1 | -14.2%
CCOC(=O)CSc1nc(C)cc(C)c1C#N | 11.4%
O=C(OCCN=C1NS(=O)(=O)c2ccccc21)c1cccc([N+](=O)[O-])c1 | -3.7%
Cc1ccc(OCc2nnc(N)s2)cc1C | 11.3%
COc1ccc(C(C)=O)cc1CN1C(=O)NC2(CCCCCC2)C1=O | -3.9%
COc1ccc(C(=O)/C=C/c2ccc(C)cc2)c(OC(=O)c2ccc([N+](=O)[O-])cc2)c1 | 7.29%
COc1ccccc1N1CCN(C(=O)c2ccc(COc3cccc4c3OC(C)(C)C4)cc2)CC1 | -8.84%
COc1ccc(C(=O)Nc2ccccc2C(=O)Nc2cc(C)ccn2)cc1 | -5.69%
Cc1ccc(CC(=O)NCCS(=O)c2ccc(C)cc2)cc1 (stereo not drawn) | -5.27%
CC(=O)NC(O)C(=O)c1ccco1 (stereo not drawn) | 18.4%
O=C(NC(N1CCCCCC1)C(Cl)(Cl)Cl)c1ccccc1Cl (stereo not drawn) | 6.05%
C=Cn1cc[n+](CC(=O)c2cc(C(C)(C)C)c(O)c(C(C)(C)C)c2)c1.[Br-] | 8.17%
Cc1ccc(C)c(N(C(=O)Cn2nnc(-c3cccs3)n2)C(C(=O)NC2CC2)c2ccc(C)o2)c1 (stereo not drawn) | 0.588%
Cc1cc(C(=O)NCc2cccs2)ccc1[N+](=O)[O-] | -11.4%

Compound | hERG current change (%, negative = inhibition) at 10uM
Cc1nc2c3ccccc3nc(SCC(=O)N3CC(C)CC(C)C3)n2n1 (stereo not drawn) | -38%
Cc1c(C=O)c2ccccn2c1C(=O)c1cccc([N+](=O)[O-])c1 | 12.5%
CCc1nnc(NC(=O)CSc2nnc(COc3cccc(C)c3)o2)s1 | 15.9%
COc1ccc(CNC(=O)c2ccc(NC(=O)CC3SC(N4CCCCC4)=NC3=O)cc2)cc1 (stereo not drawn) | -4.22%
O=C(CSc1nc(O)c(C2CCCCC2)c(=O)[nH]1)Nc1ccc(F)cc1 | 22.4%
CN(C)/C=C/C(=O)c1cnc(-c2ccc(Cl)cc2)s1 | 15.4%
O=c1[nH]c(=S)[nH]c2[nH]c(=S)[nH]c12 | 14.5%
Cc1nc(NS(=O)(=O)c2ccc(Br)cc2)c2c3c(sc2n1)CCC3 | -2.86%
CCN(CC)CCN1C(=O)C(O)=C(C(=O)c2sc(C)nc2C)C1c1cccnc1 (stereo not drawn) | 11.3%
Cc1nc2ccccc2c(=O)n1-c1cccc(NS(=O)(=O)c2ccccc2)c1 | -20.9%
CCNC(=S)/N=C(/Nc1ccccc1)Nc1nc(C)cc(C)n1 | -6.85%
O=C(NNC(=O)C1CC(=O)N(Cc2ccccc2)C1)c1ccc(Br)cc1 (stereo not drawn) | -1.34%
O=C(CSc1nnc(Cc2ccccc2)o1)c1ccccc1 | 10.3%
NS(=O)(=O)c1ccc(CCNC(=O)c2cc(-c3ccccc3)nc3ccccc23)cc1 | -10.4%
Cc1cc2nc(CCN(Cc3cccnc3)C(=S)Nc3ccc(F)cc3)[nH]c2cc1C | 9.94%
O=C(NCc1cccc(Cl)c1)NCc1cccc(Cl)c1 | -43%
Cc1ccc(NC(=O)NC(=O)COc2ccccc2C(N)=O)c(C)c1 | 4.05%
Nc1ccccc1CNc1nc(NCCO)nc2c1ncn2CCN1CCOCC1 | -4.12%
C#CCNC(=O)C1=C[C@H](c2cn(C(C)=O)c3ccccc23)[C@@H](CCCO)[C@H](OCC)O1 | -36.9%
CC(=O)c1ccc(OC(=O)C2CSC3(C)CCC(=O)N23)cc1 (stereo not drawn) | 12.4%
CCN(CC)CC.O=C1NC(=S)S/C1=C1\Sc2ccccc2N1CCCS(=O)(=O)O | 24%
